Reference: PubChem BioAssay AID894 (National Center for Advancing Translational Sciences (NCATS), 2007)
Hit rate of the full screen: of about 150,000 compounds, about 6,500 (4.3%) were called active. This list was built around the results that the source calls inconclusive (neither active nor inactive); the mix of calls is not that of the screen. Calls come from the whole dose curve; as a rule, active = well fitted inhibition curve with a large enough effect (not every such curve was filed as active); inconclusive = small, poorly fitted or top-dose-only effect, or another doubt; inactive = no such curve, though single readings can be large or run the other way. No potency is given beside an inconclusive call; the fits are too rough.

Target: 15-hydroxyprostaglandin dehydrogenase [NAD(+)] (Homo sapiens) (UniProt P15428)
Experiment: qHTS Assay for Inhibitors of HPGD (15-Hydroxyprostaglandin Dehydrogenase)
Conditions: purified HPGD, NADH fluorescence kinetic, PGE2 substrate; activity change, negative = inhibition: active compounds read low
How it was run: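 20 nM HPGD preincubated 15 min at room temperature with compound in 50 mM Tris-HCl pH 8, 0.01% Tween 20. Started with 1 mM NAD+ and 30 uM prostaglandin E2; NADH fluorescence (360/450 nm) read 5 times over 30-s intervals, last minus first.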
% is set by controls: 0 for no effect and ±100 for the full control effect; potency is the fitted concentration of half-maximal effect; tags give direction and shape of the fitted curve.

Sequence of UniProt P15428 (P15428 whole entry, looked up): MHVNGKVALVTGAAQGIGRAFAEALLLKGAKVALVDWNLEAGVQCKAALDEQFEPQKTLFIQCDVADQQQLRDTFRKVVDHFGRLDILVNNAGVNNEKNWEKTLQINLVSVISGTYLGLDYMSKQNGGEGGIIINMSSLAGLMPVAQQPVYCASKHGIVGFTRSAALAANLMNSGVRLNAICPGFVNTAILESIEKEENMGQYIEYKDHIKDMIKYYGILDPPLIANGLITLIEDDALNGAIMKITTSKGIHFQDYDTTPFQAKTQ

SMILES	Potency	activity change, negative = inhibition
Cc1ccc(N2C(=N)SCC2=O)cc1Cl	active: 14.1 µM	
O=C(COC(=O)c1cccnc1SCC(=O)NCc1ccccc1)NCc1ccccc1	inconclusive [inhibitor, partial curve]	
CCOc1cc(S(=O)(=O)N(Cc2ccccc2)Cc2ccccc2)c(OCC)cc1-n1cnnn1	inconclusive [inhibitor, partial curve]	
CCCCn1c(NC(C)=O)c(C#N)c2nc3ccccc3nc21	inconclusive [inhibitor, partial curve]	
Cc1c(C(=O)Nc2ccccc2)csc1-c1ccccc1	inconclusive [inhibitor, full curve, poor fit]	
Cc1ccc(NS(=O)(=O)c2cn(C)cn2)cc1		inactive: -8.21%
Cn1cnnc1SCC(=O)Nc1ccc2nc(SCc3ccccc3F)sc2c1		inactive: -24.3%
COC(=O)c1ccc(C(=O)OC)c(NC(=O)CCC(=O)O)c1	inconclusive [inhibitor, partial curve]	
N#Cc1nc(-c2ccco2)oc1N1CCN(c2cccc(Cl)c2)CC1	inconclusive [inhibitor, partial curve]	
COc1ccc(OCCCC(=O)NCc2ccco2)cc1	inconclusive [inhibitor, single point]	
Fc1ccccc1CNc1cc(Cl)cc(Cl)c1	inconclusive [inhibitor, partial curve]	
O=C(COC(=O)c1ncc(Cl)c(Cl)c1Cl)c1ccc(Cl)s1	inconclusive [inhibitor, partial curve]	
O=C(CCCc1ccccc1)c1ccc2c(c1)OCCO2		inactive: -29.5%
N#Cc1nc(-c2ccccc2Cl)oc1N1CCOCC1	inconclusive [inhibitor, partial curve]	
O=C(NC1CCCC1)c1ccc(CSc2nc3ccncc3n2Cc2ccc(F)cc2)cc1	active: 3.16 µM	
Cc1n[nH]c(=S)n1/N=C/c1ccc(-c2ccccc2[N+](=O)[O-])o1	active: 14.1 µM	
CCN(CC)c1ccc2c(C)cc(=O)oc2c1	inconclusive [inhibitor, partial curve]	
CCOC(=O)c1c(-c2ccc(-c3ccccc3)cc2)csc1NC(=O)C1C2CCC(O2)C1C(=O)O (configuration not stated)	active: 14.1 µM	
CCC(=O)N(Cc1cc2cc(OC)ccc2[nH]c1=O)c1cccc(C)c1	inconclusive [inhibitor, partial curve]	
O=C(CN1CCCCC1)Nc1ccc(F)c(Cl)c1	inconclusive [inhibitor, partial curve]	
COc1c(O)cc2c(=O)oc3c(OC)c(O)cc4c(=O)oc1c2c34	active: 5.01 µM	
CCCCOc1ccc(CN2CCC(O)CC2)cc1		inactive: -19.5%
O=[N+]([O-])c1ccc2nc(SCc3cn4cc(Cl)ccc4n3)[nH]c2c1	inconclusive [inhibitor, partial curve]	
C=CCn1c(SCC(=O)c2cc(C)n(CCOC)c2C)nc2sc(C)c(C)c2c1=O	inconclusive [inhibitor, partial curve]	

SMILES	Potency	activity change, negative = inhibition
Cc1nnc(NC(=O)COc2ccc3c(C)cc(=O)oc3c2)s1	inconclusive [inhibitor, single point]	
Cc1nc2oc3c(NCC4CCCO4)ncnc3c2c2c1COC(C)(C)C2 (configuration not stated)	inconclusive [inhibitor, partial curve]	
CCCn1nc2cc(C(=O)NCc3ccc(C)cc3)ccc2c1OCC	inconclusive [inhibitor, partial curve]	
Fc1cccc(NC(=S)NCc2ccccn2)c1	inconclusive [inhibitor, partial curve]	
CC(=O)N1CCc2c(sc(NC(=O)CN3C(=O)CCC3=O)c2C(N)=O)C1	inconclusive [inhibitor, single point]	
Cc1cc(NC(=O)c2cc(-c3cccnc3)nc3c(C)c(C)ccc23)no1	inconclusive [inhibitor, partial curve]	
C=C(C)Cn1c(CCn2c3ccccc3c3ccccc32)n[nH]c1=S	inconclusive [inhibitor, partial curve]	
CCOC(=O)c1ccc(C(=O)OCC)c(NC(=S)Nc2ccc([N+](=O)[O-])cc2OC)c1	inconclusive [inhibitor, partial curve]	
CC1(C)CC[C@]2(C(=O)O)C(O)C[C@@]3(C)C(=CCC4[C@@]5(C)CCC(O)C(C)(C)C5CC[C@@]43C)C2C1 (some centres not stated)		inactive: -1.99%
O=S(=O)(c1ccccc1)c1ccc(NCc2ccco2)cc1	inconclusive [inhibitor, partial curve, poor fit]	
COc1cccc([C@@H]2Oc3ccc(OC)cc3C(=O)[C@H]2OC(=O)Nc2ccc(C)c(Br)c2)c1		inactive: -14.2%
O=C(c1ccc(Cl)cc1)c1c[nH]c(C(=O)C(Cl)(Cl)Cl)c1	inconclusive [inhibitor, single point]	
N#Cc1c(-c2ccc(Br)cc2)nc2n(c1=O)CCCS2	active: 28.2 µM	
Cc1nnc(SCc2cn3ccsc3n2)n(N)c1=O		inactive: 4.35%
COc1cc(/C=C/C(=O)OCC(=O)Nc2ccc3c(c2)OCCO3)ccc1OCC#N	inconclusive [inhibitor, partial curve]	
O=c1c(N2CCCCC2)coc2ccccc12		inactive: -11.9%
O=c1[nH]nc(Cc2ccccc2)c2ccccc12		inactive: -16.2%
COCCOC(=O)c1c(C)oc2ccc(OC(=O)c3cccs3)cc12		inactive: -12.9%
CCOC(=O)C(=Cc1ccc(F)cc1)C(=O)OCC		inactive: -3.33%
Cc1cc2ccccc2nc1SCC(=O)N1CCCC1	inconclusive [inhibitor, single point]	
N#Cc1c(N)sc2c1CCN(C(=O)OCc1ccccc1)C2	inconclusive [inhibitor, single point]	
CCCCn1c(SCC(=O)Nc2ccccc2C(F)(F)F)nc2ccsc2c1=O		inactive: -14.9%
S=c1[nH]nc(CSCc2ccccc2Cl)n1-c1ccccc1	inconclusive [inhibitor, partial curve]	
COCCn1c(=O)c(-c2ccc(OC)cc2)nc2cnc(Nc3cccc(OC)c3)nc21		inactive: -6.76%

SMILES	Potency	activity change, negative = inhibition
Cc1noc(C)c1C(=O)N1CCC2(CC1)CCN(C(c1ccccc1)c1ccccc1)CC2		inactive: -26.3%
Cc1ccc(-c2nc(CN(C)C)cc(CN(C)C)c2O)cc1	inconclusive [inhibitor, partial curve]	
Cc1cc(C)c(Cc2c(C)nc3c(C(=O)NCc4ccco4)cnn3c2C)c(C)c1	inconclusive [inhibitor, partial curve]	
c1ccc(-n2nnnc2SCc2ccccn2)cc1		inactive: -7.24%
CCSC(C)CC1C/C(=N/O)c2c(CC)noc2C1 (configuration not stated)	inconclusive [inhibitor, partial curve, poor fit]	
O=C(O/N=C\c1ccc(N2CCCCC2)c([N+](=O)[O-])c1)c1c(F)cccc1F		inactive: -19.9%
Cc1cccn2c(=O)c(/C=C(\C#N)C(=O)NCc3ccco3)c(N3CCCCC3)nc12	active: 31.6 µM	
COC(=O)c1ccccc1SC1CC(=O)N(c2ccccc2)C1=O (configuration not stated)	active: 14.1 µM	
Cc1c(Cc2ccccc2)c(=O)oc2c(C)c(OCc3nn[nH]n3)ccc12	inconclusive [inhibitor, partial curve]	
CN(C)c1ccc(C=Nc2ccccc2C(N)=O)cc1	inconclusive [inhibitor, partial curve]	
CC1=C(C(=O)O)N2C(=O)C(NC(=O)C(N)c3ccc(O)cc3)C2SC1 (configuration not stated)		inactive: -17.3%
Cn1cnnc1SCC(=O)c1cc2ccccc2oc1=O	inconclusive [inhibitor, single point]	
CCOC(=O)C[n+]1c(C)sc2ccc(OC)cc21	active: 20 µM	
CCC(C)c1ccc(NC(=S)Nc2ccc(OC)cc2C)cc1 (configuration not stated)	active: 25.1 µM	
CC(C)(C)NC(=O)c1sccc1C(=O)O	inconclusive [inhibitor, partial curve]	
Cc1sc2ncnc(SCC(=O)N3CCCC3=O)c2c1C	active: 25.1 µM	
CCN(CC)CCn1c2ccccc2c2cnc(N=CN(C)C)c(C#N)c21	inconclusive [inhibitor, partial curve, poor fit]	
Cc1nc(-n2nnc3cc(C)c(C)cc32)c2c3c(sc2n1)CCCC3	inconclusive [inhibitor, partial curve, poor fit]	
CS(=O)(=O)Nc1ccc(C(=O)NCc2ccco2)cc1		inactive: -18.8%
Cc1cc2oc(C(=O)NC3CCS(=O)(=O)C3)c(C)c2cc1C (configuration not stated)	inconclusive [inhibitor, partial curve]	
Cc1cccc(OCc2nc(C#N)c(NCc3ccc4c(c3)OCO4)o2)c1	inconclusive [inhibitor, partial curve]	
COc1ccc(CCNc2oc(-c3ccc(C)cc3)nc2C#N)cc1OC	inconclusive [inhibitor, partial curve]	
FC(F)Sc1ccc(N=C2NN=C(c3ccc4c(c3)OCCO4)CS2)cc1		inactive: -8.44%
Cc1nc(NS(=O)(=O)c2ccccc2C)c2c3c(sc2n1)CCC3	inconclusive [inhibitor, partial curve]	
